From PubChem BioAssay AID493208 (National Center for Advancing Translational Sciences (NCATS), 2011)
The whole screen tested about 44,000 compounds, of which about 340 (0.77%) were called active. Inconclusive results (about 5%) are left out. The call rests on the fitted dose curve; in most records, active means well fitted inhibition curve with a large enough effect; inconclusive means small, poorly fitted or top-dose-only effect; inactive means flat fitted curve, though single readings scatter. The list shows a part of the results.

Test: Acumen qHTS Assay for Inhibitors of the mTORC1 Signaling Pathway in MEF (Tsc2-/-, p53-/-) Cells: Sytravon;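 further: plate controls were DMSO for no effect and rapamycin for full effect; nearly all actives have a fitted effect of over 50% in size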
Details: phospho-rpS6 immunofluorescence/PI, 24 h; series mostly up to 38.3 µM; activity change, negative = inhibition: at the top concentration
How it was run: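 Readout is phospho-S6 Alexa 488 signal normalized to PI per well, reported as % active cells with thresholds set from rapamycin (7.5 nM) and DMSO controls. Cells: Tsc2-/-, p53-/- MEFs, 24 hrs compound at 37 C; PI cell number serves as viability.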

Activity change, negative = inhibition, inactive:
CC(C)Oc1ccc(C(=O)N(Cc2ccco2)Cc2cccs2)cc1 -4.87%
CCOC(=O)c1ccccc1NC(=O)CSc1nccn1Cc1ccco1 -3.77%
Cc1cc(OCC(=O)N(Cc2ccc(N(C)C)cc2)CC2CCCO2)ccc1Cl (configuration not stated) -1.03%
Cc1cccc(C)c1NC(=O)c1sc(-n2nc(C)c(Cc3ccccc3)c2C)nc1C -6.87%
O=C(CSc1ncc(S(=O)(=O)c2ccc(Cl)cc2)c(=O)[nH]1)Nc1cccc(C(F)(F)F)c1 0.472%
COc1ccc(-c2cc3nc(C)c(CCC(=O)NC4CCCCC4)c(C)n3n2)c(OC)c1 3.67%
O=C(c1cccn1-c1nnc(N2CCCC2)s1)N1CCN(c2ccc(Cl)cc2)CC1 -2.98%
COc1cc(C2Nc3c(C)cc(C)cc3-c3cc(C)nn32)cc(OC)c1O (configuration not stated) -20.6%
Cc1ccc2c(c1)C(c1ccccc1)N(C(=O)Cc1ccc(F)cc1)CC(=O)N2 (configuration not stated) 2.04%
Cn1c(=O)[nH]c2cc(-c3noc(-c4ccc(C#N)cc4)n3)ccc21 -2.83%
CCCS(=O)(=O)NCCc1sc2nc(-c3ccc(F)cc3)nn2c1C -12%
CC(=O)Nc1ccc(S(=O)(=O)NCC2CCC(C(=O)NCCN(CC(C)C)CC(C)C)CC2)cc1 (configuration not stated) 5.13%
COc1ccc(Cn2c(C(=O)O)c(CNCCc3cc(OC)ccc3OC)c3ccc(C)cc32)cc1 -6.14%
COc1ccc(C2=NC(C)(C)N(CC(=O)Nc3cccc(C)c3)C2=O)cc1 -2.91%
CC1=C(C(=O)Nc2ccc(Cl)cc2)C(CC(C)C)n2nc(SCc3ccccc3C)nc2N1 (configuration not stated) 1.53%
Cc1ccc(S(=O)(=O)Nc2nc3n(n2)C(c2ccc(F)cc2)C=C(c2ccccc2)N3)cc1 (configuration not stated) -2.73%
COc1cc(C2C(=O)N(C3CCCCCC3)CC(=O)N2CCc2ccccc2)ccc1OC(C)C (configuration not stated) 3.22%
Cc1ccc(C)c(-n2c(N)c(C#N)c3nc4ccccc4nc32)c1 4.12%
Cc1nc2ccn(Cc3ccco3)c(=O)c2cc1C(=O)NCc1ccccc1 1.79%
COc1ccccc1CNS(=O)(=O)c1cnc(N)nc1 -2.68%
O=C(NCC(c1ccco1)S(=O)(=O)c1cccs1)c1ccccc1F (configuration not stated) -1.15%
COc1cccc(CNc2cc(C)nc3nc(-c4ccc(C)cc4)nn23)c1 -11.1%
COc1ccc(C2c3c(n(C)c4ccccc34)C(=O)N2CC(=O)Nc2cccc(F)c2)cc1 (configuration not stated) -8.85%
CCCc1cc(=O)[nH]c2nnc(SCC)n12 -0.0451%
O=c1oc2ccc3ccccc3c2cc1-c1nnc(Nc2ccc(F)cc2)s1 0.244%
Cc1ccc(N2CC(C)Cn3c2nc2c3c(=O)n(Cc3cccc(Cl)c3)c(=O)n2C)cc1 (configuration not stated) 0.411%
COc1ccc(NC(=O)c2oc3ccc(S(=O)(=O)N4CCOCC4)cc3c2C)cc1 -22.6%
